# Experimental data taken from the BET-seq Pho4 binding data (Le et al. 2018).
# The list shows a part of the results. Values were computed here from the reads of four pooled replicates and scatter widely.
# Biological target: T1, Pho4 (S. cerevisiae) (UniProt P07270)
# T1 sequence: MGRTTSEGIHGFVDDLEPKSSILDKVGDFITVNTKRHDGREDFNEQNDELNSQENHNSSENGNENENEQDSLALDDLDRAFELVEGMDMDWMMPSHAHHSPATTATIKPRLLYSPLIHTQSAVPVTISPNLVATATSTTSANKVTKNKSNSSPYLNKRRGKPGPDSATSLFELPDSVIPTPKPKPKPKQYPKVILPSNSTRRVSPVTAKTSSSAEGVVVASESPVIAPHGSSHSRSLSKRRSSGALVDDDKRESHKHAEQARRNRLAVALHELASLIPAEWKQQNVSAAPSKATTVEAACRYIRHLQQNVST
# Experiment: relative binding free energy (BET-seq); higher = weaker binding
# Conditions: reference: library average
row,Sequence,relative binding free energy
1,TCTTGCACGTGTAGTA,-0.09 kcal/mol
2,GTTCGCACGTGGGCTG,-0.35 kcal/mol
3,TTGTTCACGTGGTAGA,0.19 kcal/mol
4,TTTTTCACGTGGAAGT,0.27 kcal/mol
5,AGCGTCACGTGGTTTT,0.1 kcal/mol
6,GATAGCACGTGGGTTT,-0.07 kcal/mol
7,AGGTGCACGTGTCAGT,-0.12 kcal/mol
8,ATTGCCACGTGGATTT,-0.04 kcal/mol
9,GAGGGCACGTGAGCTT,0.18 kcal/mol
10,GATGACACGTGTTTGG,0.16 kcal/mol
11,TGTGACACGTGGGCTC,-0.11 kcal/mol
12,TGTGTCACGTGACTGT,0.17 kcal/mol
13,GTTTGCACGTGGACGG,0.1 kcal/mol
14,GTCGTCACGTGGTTGT,0.21 kcal/mol
15,AGTATCACGTGCGGCG,0.05 kcal/mol
16,TCAGTCACGTGAATGG,0.13 kcal/mol
17,TTTATCACGTGAGAAA,0.47 kcal/mol
18,GATTACACGTGGTTCG,0.19 kcal/mol
19,TGTCTCACGTGGCTTT,0.05 kcal/mol
20,ACGGGCACGTGGTATT,-0.25 kcal/mol
21,ATATTCACGTGCGATT,0.15 kcal/mol
22,GTACTCACGTGGGTGA,-0.01 kcal/mol
23,GTTTGCACGTGAGGGC,0.35 kcal/mol
24,GATCGCACGTGTTTGT,0.04 kcal/mol
25,TGGGGCACGTGGGGAC,-0.2 kcal/mol
26,AGAGTCACGTGTGATT,0.14 kcal/mol

row,Sequence,relative binding free energy
1,AAGTCCACGTGGATGG,0.03 kcal/mol
2,GGTTTCACGTGGGATA,0.24 kcal/mol
3,GTTCACACGTGAGGCT,0.45 kcal/mol
4,CGGGTCACGTGTCGTG,0.1 kcal/mol
5,GAGCTCACGTGAGGTT,0.32 kcal/mol
6,AGGAACACGTGGGCTT,-0.06 kcal/mol
7,TTATTCACGTGCGGGT,0.18 kcal/mol
8,CAGGGCACGTGGAGGG,-0.26 kcal/mol
9,TGTCACACGTGGTTAG,0.13 kcal/mol
10,CTTTTCACGTGGGACT,0.26 kcal/mol
11,TTTATCACGTGAGGAT,0.34 kcal/mol
12,ACGGTCACGTGGAGGC,0.1 kcal/mol
13,AATTACACGTGTAGTA,-0.05 kcal/mol
14,TGGCTCACGTGTATTG,0.18 kcal/mol
15,TTGCGCACGTGGGTGT,-0.29 kcal/mol
16,GGTGGCACGTGGCTGT,-0.1 kcal/mol
17,GTGAGCACGTGGCGGC,-0.19 kcal/mol
18,TGATGCACGTGGAGAT,-0.11 kcal/mol
19,GGGGTCACGTGCTGCT,0.1 kcal/mol
20,TTGTTCACGTGTTAAG,0.29 kcal/mol
21,TTTATCACGTGTCTCT,0.13 kcal/mol
22,TCGTGCACGTGTTTAG,0.06 kcal/mol
23,TGTATCACGTGGCCGT,-0.02 kcal/mol
24,TGTAACACGTGGTCGT,-0.2 kcal/mol
25,GTTTTCACGTGGGGGG,0.26 kcal/mol
26,TATCGCACGTGAATGT,0.03 kcal/mol

row,Sequence,relative binding free energy
1,TGTTCCACGTGACGGG,0.23 kcal/mol
2,AGATGCACGTGGGCGT,-0.13 kcal/mol
3,TTCTGCACGTGGTAGG,-0.06 kcal/mol
4,AGTCGCACGTGGGTAT,-0.15 kcal/mol
5,TATGACACGTGATAAT,0.15 kcal/mol
6,AGTCGCACGTGTATTT,0.05 kcal/mol
7,TGTCGCACGTGGGCCG,-0.17 kcal/mol
8,TTGGTCACGTGGTTGA,0.1 kcal/mol
9,TTGAACACGTGTAGAT,0.23 kcal/mol
10,TGGAACACGTGTGGTA,-0.07 kcal/mol
11,ATTGACACGTGATTTT,0.06 kcal/mol
12,TGAGGCACGTGTTATA,-0.14 kcal/mol
13,TTTATCACGTGAGAGT,0.2 kcal/mol
14,CTCGACACGTGGGGTG,-0.04 kcal/mol
15,CTTGTCACGTGCGGAT,0.02 kcal/mol
16,TGCATCACGTGTAAGT,0.22 kcal/mol
17,TGGTCCACGTGTGTCT,0.05 kcal/mol
18,TATCTCACGTGTAGTG,0.14 kcal/mol
19,TTCGGCACGTGGGCTA,-0.11 kcal/mol
20,GGTTGCACGTGCGCTG,-0.08 kcal/mol
21,AGGGGCACGTGACGCG,-0.18 kcal/mol
22,GGCAACACGTGGAGGT,-0.07 kcal/mol
23,GGGGTCACGTGATCGC,0.19 kcal/mol
24,ATTGACACGTGATGTA,0.15 kcal/mol
25,TTCGACACGTGTAGTT,0.09 kcal/mol
26,CGCTTCACGTGTTGGG,0.19 kcal/mol

row,Sequence,relative binding free energy
1,ACGGTCACGTGGCGGA,0.04 kcal/mol
2,GTTGTCACGTGGGGCT,0.01 kcal/mol
3,CATATCACGTGCGTGT,0.06 kcal/mol
4,GGATGCACGTGTTACT,0.11 kcal/mol
5,TGAATCACGTGTTGCT,0.21 kcal/mol
6,TGTCACACGTGGGGAG,-0.12 kcal/mol
7,AGGTACACGTGGTATT,-0.07 kcal/mol
8,AATTACACGTGTCATG,0.2 kcal/mol
9,TTGATCACGTGGAGGG,0.2 kcal/mol
10,TATGTCACGTGGCATA,-0.07 kcal/mol
11,TGGTACACGTGTATAT,0.16 kcal/mol
12,TGATGCACGTGCAGAG,-0.03 kcal/mol
13,GTTAGCACGTGAGGCG,0.31 kcal/mol
14,TGTTACACGTGGCCGT,-0.04 kcal/mol
15,GGAAACACGTGGGGTT,-0.07 kcal/mol
16,TGAAGCACGTGGCATG,-0.07 kcal/mol
17,GTTGCCACGTGAGTTG,0.27 kcal/mol
18,GGAATCACGTGAGGGA,0.25 kcal/mol
19,TTATTCACGTGTAGTG,0.13 kcal/mol
20,AGCTGCACGTGAAGGG,0.41 kcal/mol
21,TTGTACACGTGACTTG,0.12 kcal/mol
22,CGTGTCACGTGTGAGA,0.15 kcal/mol
23,TAGTTCACGTGTCCGG,0.31 kcal/mol
24,AGTTGCACGTGATACG,0.06 kcal/mol
25,ATTTTCACGTGATTCC,0.59 kcal/mol
26,GTCAGCACGTGTGGGC,-0.09 kcal/mol

row,Sequence,relative binding free energy
1,CGTTACACGTGGGTGC,0.02 kcal/mol
2,TGTTTCACGTGAATAG,0.39 kcal/mol
3,TGGGTCACGTGGAGAT,0.22 kcal/mol
4,TAGTGCACGTGAGAGT,0.1 kcal/mol
5,TGGCTCACGTGAGGGG,0.34 kcal/mol
6,GTGCGCACGTGGTGAA,-0.17 kcal/mol
7,TATACCACGTGGTGGA,-0.09 kcal/mol
8,TGTCTCACGTGAGTTT,0.34 kcal/mol
9,ATGGACACGTGATCGG,0.12 kcal/mol
10,ACTGGCACGTGATTGA,0.16 kcal/mol
11,ATGATCACGTGGTGTC,0.08 kcal/mol
12,TGTAACACGTGCGGGG,-0.07 kcal/mol
13,GGCGTCACGTGAGGTG,0.28 kcal/mol
14,GCCGGCACGTGGGGTC,-0.08 kcal/mol
15,GCAGTCACGTGTAGTG,0.1 kcal/mol
16,TGGATCACGTGATGAT,0.5 kcal/mol
17,TGGTACACGTGTTCAT,0.1 kcal/mol
18,TTTTTCACGTGTACTA,0.18 kcal/mol
19,TATGTCACGTGTTGAA,0.09 kcal/mol
20,TTTAGCACGTGCTTAA,-0.12 kcal/mol
21,CGGGTCACGTGGAGGC,0.07 kcal/mol
22,TAACACACGTGGGTGG,-0.12 kcal/mol
23,GTTGTCACGTGTTGCT,0.19 kcal/mol
24,GTGTGCACGTGGTAAG,-0.05 kcal/mol
25,TCTAGCACGTGGAGGC,0.16 kcal/mol
26,GTATGCACGTGTTTCG,0.06 kcal/mol

row,Sequence,relative binding free energy
1,TGAATCACGTGGATGT,0.15 kcal/mol
2,TCGGACACGTGATATT,0.26 kcal/mol
3,GATTTCACGTGGCGTG,0.34 kcal/mol
4,TGTACCACGTGTATGT,-0.01 kcal/mol
5,TGTATCACGTGGCATT,0.13 kcal/mol
6,TTTAGCACGTGTAAAA,0.01 kcal/mol
7,AGTGGCACGTGACTTT,-0.05 kcal/mol
8,TGCTACACGTGTGAGT,0.09 kcal/mol
9,CCGGTCACGTGTGTTG,0.08 kcal/mol
10,GTGGGCACGTGATGAC,0.05 kcal/mol
11,GAGCTCACGTGTTTGT,0.25 kcal/mol
12,TTGGTCACGTGGTGGT,0.05 kcal/mol
13,TAATGCACGTGAAGTA,0.17 kcal/mol
14,CATGTCACGTGCGTTG,0.01 kcal/mol
15,TTTTTCACGTGCTGGT,0.31 kcal/mol
16,GGTGCCACGTGCCGGG,-0.16 kcal/mol
17,AGGTTCACGTGAGAAG,0.43 kcal/mol
18,TTTTTCACGTGGTCAT,0.32 kcal/mol
19,CGGGTCACGTGGGCTC,0.07 kcal/mol
20,GTTTTCACGTGATCTA,0.39 kcal/mol
21,GTAGTCACGTGTAGCA,0.37 kcal/mol
22,GTAACCACGTGCGGGT,0.01 kcal/mol
23,GGGGTCACGTGGTGCA,0.12 kcal/mol
24,ATTTGCACGTGCTAAG,-0.02 kcal/mol
25,ATGAGCACGTGTGTAT,-0.13 kcal/mol
26,GAGGGCACGTGTTTCG,-0.11 kcal/mol

row,Sequence,relative binding free energy
1,ATCGTCACGTGCGTTG,0.17 kcal/mol
2,GTTGTCACGTGACAGG,0.19 kcal/mol
3,GCTGGCACGTGGATTT,0 kcal/mol
4,AGGCGCACGTGTTTGT,-0.11 kcal/mol
5,TTCTGCACGTGGAATT,0 kcal/mol
6,TTTGACACGTGTGTTG,0.04 kcal/mol
7,TTAATCACGTGGGGTT,0.02 kcal/mol
8,TGTATCACGTGCGGAG,0.21 kcal/mol
9,GTTTTCACGTGTTGGG,0.3 kcal/mol
10,GGGTGCACGTGGCGAT,-0.03 kcal/mol
11,ATAAGCACGTGAGTGT,0.12 kcal/mol
12,CTTTTCACGTGATATT,0.21 kcal/mol
13,GCTGTCACGTGGAGGT,0.07 kcal/mol
14,TGGGTCACGTGTTCAG,-0.01 kcal/mol
15,ATTTGCACGTGCGTGT,-0.09 kcal/mol
16,CTGGGCACGTGGGGTG,-0.23 kcal/mol
17,AGGAACACGTGGTTAG,-0.18 kcal/mol
18,AGTAGCACGTGTGGAA,0.03 kcal/mol
19,GGATGCACGTGCGGGC,0.1 kcal/mol
20,TTTATCACGTGGTCAA,0 kcal/mol
21,ATGTTCACGTGACTGG,0.34 kcal/mol
22,TTGATCACGTGCGTTG,0.1 kcal/mol
23,GGTTTCACGTGCGGGT,0.35 kcal/mol
24,GTTGGCACGTGTGGCT,-0.01 kcal/mol
25,GTACTCACGTGGCTGG,0.27 kcal/mol
26,GAAGTCACGTGGCGTG,0.11 kcal/mol

row,Sequence,relative binding free energy
1,GGAGTCACGTGTATGG,0.28 kcal/mol
2,GAGGTCACGTGTCTGA,0.32 kcal/mol
3,CAGGGCACGTGTTAAT,-0.03 kcal/mol
4,TTTGCCACGTGAGGTA,0.08 kcal/mol
5,TGGGCCACGTGGTTGC,-0.24 kcal/mol
6,GATCTCACGTGGTGTG,0.17 kcal/mol
7,AGAGGCACGTGCTTTT,-0.08 kcal/mol
8,TACGGCACGTGTGTGG,0.01 kcal/mol
9,TCAGTCACGTGGGTAT,0.05 kcal/mol
10,AGTTGCACGTGGTCTG,-0.25 kcal/mol
11,CAAAGCACGTGGGGGG,-0.28 kcal/mol
12,GGGTGCACGTGTTCTA,-0.05 kcal/mol
13,TTCGTCACGTGTCTTT,0.02 kcal/mol
14,CTTGCCACGTGTGTAG,-0.05 kcal/mol
15,TGGGTCACGTGCTGTT,0.13 kcal/mol
16,TATATCACGTGAGGTC,0.47 kcal/mol
17,TGGAGCACGTGGGGTG,-0.19 kcal/mol
18,TTGTGCACGTGAGATC,0.29 kcal/mol
19,TTGGTCACGTGAGACT,0.35 kcal/mol
20,TTCGCCACGTGGGTGG,-0.3 kcal/mol
21,AAAGGCACGTGTGGCT,-0.03 kcal/mol
22,ATTTGCACGTGATATA,0.09 kcal/mol
23,CTGATCACGTGTAGGG,0.18 kcal/mol
24,ATTGGCACGTGGGCAG,-0.2 kcal/mol
25,GGAGACACGTGTGCAT,0.06 kcal/mol
26,CCGCTCACGTGGGGGT,0.07 kcal/mol

row,Sequence,relative binding free energy
1,ATTATCACGTGTTCGG,0.01 kcal/mol
2,GAGTGCACGTGGATGT,-0.04 kcal/mol
3,TTGCGCACGTGGAGGG,-0.24 kcal/mol
4,GGATTCACGTGGTTTA,0.27 kcal/mol
5,GATGGCACGTGGTAAG,-0.11 kcal/mol
6,TGGGCCACGTGAGGTA,-0.01 kcal/mol
7,TTCAGCACGTGGTGTA,-0.15 kcal/mol
8,TATGGCACGTGGGTTC,-0.19 kcal/mol
9,GAGGGCACGTGACTGT,-0.03 kcal/mol
10,GGGTTCACGTGTTTCG,0.3 kcal/mol
11,TATAGCACGTGAGGAT,0.21 kcal/mol
12,TTCGACACGTGTGGAT,0.16 kcal/mol
13,AGTGGCACGTGTGAAG,0.11 kcal/mol
14,GTAAGCACGTGAGGGG,0.17 kcal/mol
15,TTATACACGTGTAGAA,0.18 kcal/mol
16,ATATACACGTGATGTG,0.08 kcal/mol
17,TCCGTCACGTGTTGGG,0.01 kcal/mol
18,AAATTCACGTGATTAG,0.16 kcal/mol
19,TTTGCCACGTGATGTG,-0.07 kcal/mol
20,GGGCGCACGTGAGTCA,0.2 kcal/mol
21,AGTAACACGTGTTATT,-0.12 kcal/mol
22,ATACGCACGTGGTTTT,0 kcal/mol
